In the RNAGym collection of RNA variant scans (doi:10.1073/pnas.2313332121):
This sample is rich in variants without activity.

B1: TPR 5TU (parent)
chain: GGAUCUUCUCGAUCUAACAAAAAAGACAAAUCUGCCACAAAGCUUGAGAGCAUCUUCGGAUGCAGAGGCGGCAGCCUUCGGUGGCGCGAUAGCGCCAACGUUCUCAACUAUGACACGCAAAACGCGUGCUCCGUUGAAUGGAGUUUAUCAUG

Variants of: B1
Assay: polymerase ribozyme fitness, log enrichment relative to wild type (log ratio); higher = more active; in vitro selection for triplet polymerase activity
How it was run: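 Frozen incubation at −7 °C formed the core of a single, triplicate in vitro selection round applied to PCR-built, transcribed mutant libraries of each subunit of a heterodimeric triplet polymerase ribozyme. Extended constructs were gel-excised, captured with streptavidin beads and amplified by RT-PCR, and input and output libraries were Illumina-sequenced with a filter of ≥10 input reads and ≥1 read per output. Fitness is the logarithm of genotype enrichment relative to wild-type enrichment, with inverse-variance-weighted replicate averaging, and the logarithm is base 2.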

Variant | polymerase ribozyme fitness (log ratio)
A40C C51A G86C U139C | ≤ -4.2
A39U G86U C114U A120U G140A | ≤ -4.2
A39U C108G U146C | ≤ -4.2
A39U G48A A60U G83C C103A U134G | ≤ -4.2
C38U U90A A98U | ≤ -4.2
A39C C43G G92C U101G C116U C118A A137U | ≤ -4.2
A39U U61A A64C G86C | ≤ -4.2
C38U U82A A91C A98G U144C | ≤ -4.2
A39C C93U | -3.4
C38U C105U C118G U139G | -1.24
A39U G50U A73G C85A C108A G141C | ≤ -4.2
C38U G58C G81A U135G | ≤ -4.2
A39C U56A C57A U77G G94A A119U A137G A138C | ≤ -4.2
A39G C96U C116U | -1.75
A39C C118U A120U | -1.81
A40C A113U C118U G136A | -2.68
A39G C54G C57A | -3.22
C38U G62A A73G G81A C96G C108U | ≤ -4.2
A39U A49U G59C C132U | ≤ -4.2
A39G G46A U78A A142U | ≤ -4.2
A39G G48A C54A G88A C125U U134G U145C | ≤ -4.2

Variant | polymerase ribozyme fitness (log ratio)
C38U G74C G83A A142C | ≤ -4.2
A39U A47G U139G U151G | ≤ -4.2
C38U U45A G84U C129A A142C | ≤ -4.2
A39C A60U C85G A98G U139G | ≤ -4.2
A40C A41C U45A A115U A120G U144C | ≤ -4.2
A39C A41C U55A C76G G81A U90G C93G C131G | ≤ -4.2
A39G A40G C93A U144A | ≤ -4.2
A39C C96U C114G C131G | ≤ -4.2
A39U A91C A122U | ≤ -4.2
A39C G80A A97U G126U U144A | ≤ -4.2
A39U A41U U56A C93A C105A G117U A120G G133A | ≤ -4.2
A39C U53G C85U | -4.06
C38U G50A G126U A147C | ≤ -4.2
C38U U45A A49C A60G C69U | ≤ -4.2
A40C A41U C57U G83U A91G C93G G126C | ≤ -4.2
A39U A52G A66C C125U C132G | ≤ -4.2
C38U U77C C93A C103G | ≤ -4.2
A39G G50C G65C A110G A120G | ≤ -4.2
A40C A41C G59A G70U G84A C85A C105G G141C G143U | ≤ -4.2
A39C A49G A64C U77C C129G | ≤ -4.2
A39U C43U U111G | ≤ -4.2

Variant | polymerase ribozyme fitness (log ratio)
A39U A73U C85U C95G U145A | ≤ -4.2
C38U G50U C57G C108G A120U | ≤ -4.2
A39U A60U G70A | ≤ -4.2
A39C G46A U102A A113U U139A U144G | ≤ -4.2
A39C G46C G71U C93U C116U G140A A147U | ≤ -4.2
A39G G50U G71U G83A U127C | ≤ -4.2
A39G U44A A91U | ≤ -4.2
A39C U56A G88C A97C C103A | ≤ -4.2
C38U C149U | -2.71
A39C U44G G50C A52G A142C | ≤ -4.2
C38U U61C U145A | -2.49
A39C C79U G94C A119C | ≤ -4.2
A39C U53C U135C | -3.94
A39G C69A G70A U134C | ≤ -4.2
A39U G42U G50C G59A A73G G128U | ≤ -4.2
A39U A60C U101C | ≤ -4.2
A39U C76U C79A G83U C118A A120C | ≤ -4.2
C38U U44A G70C U134G | ≤ -4.2
C38U G70A C95A C99U A107U | ≤ -4.2
C38U G71A G81A G83U C93A | ≤ -4.2
C38U G74A A98G A120C A150C | ≤ -4.2

Variant | polymerase ribozyme fitness (log ratio)
A39G A52G C57G C87A C96A C116A C129U | ≤ -4.2
A39C A66G G88A C93G C116G G128U U139A | ≤ -4.2
A39C C76G A137C | ≤ -4.2
C38U U55A G59C U135C | -1.98
C38U G136U | -2.3
C38U G62C C76G G133C | ≤ -4.2
A39C U61G C95G | ≤ -4.2
C38U G84U U127G | ≤ -4.2
A39C G58A C85A C95A A142C | ≤ -4.2
A39U U53A | -2.91
A39G G48U A52U C79G A91C G143A | ≤ -4.2
A39U A52C U90G A98G | ≤ -4.2
A39G G88A G100U C114A G124U U148C | ≤ -4.2
A39C G48U G84C | ≤ -4.2
A39U A60G C87G C108A A115U | ≤ -4.2
A39C G58C A97U A98C C125U | -3.95
A39U C51A U82G C93G A147C | ≤ -4.2
A39C G50C U55A U56A G92A U102A C105U A110G | ≤ -4.2
A39U C57A A137U A142G | ≤ -4.2
A39G G62U C75U G92C A98G G152U | ≤ -4.2
A39U U45C C93U | ≤ -4.2
